Measured values published in PubChem BioAssay AID1508624 (National Center for Advancing Translational Sciences (NCATS), 2021).
Among all 48,000 compounds or so, about 120 (0.25%) were called active. About 4% were inconclusive and are not listed. The call rests on the fitted dose curve; in most records, active means well fitted activation curve with a large enough effect; inconclusive means small, poorly fitted or top-dose-only effect, or another doubt; inactive means no such curve, though single readings can be large or run the other way. This is one part of the list.

Test: Primary qHTS for Identification of Small Molecule Activators of Huntingtin-Antisense Promoter Activity; further: nearly all actives have a fitted effect of over 55% in size
Details: HEK293 HTT-AS promoter firefly luciferase reporter (activity 0% = vehicle and -100% = no light), 24 h; series mostly up to 57.5 µM; activity change, positive = activation: at the top concentration
Procedure, shortened: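 HEK293 cells carrying firefly luciferase reporters were seeded at 2,500 per well in Opti-MEM and cultured for 24 h. They were then treated with compounds at up to 57.5 uM final for 24 h at 37 degrees C before Dual-Glo luminescence readout.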

Activity change, positive = activation, inactive:
Cc1ccc(NC(=O)Cn2ncn3c(cc4ccccc43)c2=O)cc1C -17.2%
COC(=O)c1ccccc1NC(=O)Cn1c(=O)n(CCCCC(=O)NCc2ccc3c(c2)OCO3)c(=O)c2ccccc21 -7.65%
COc1cc(OC)c(NC(=O)c2c(C)oc3ncnc(N4CCCCC4)c23)cc1Cl -2.18%
Cc1ccc(N2CCN(c3nc4ccccc4c4nnc(C)n34)CC2)c(C)c1 -13.6%
O=C1Cc2cc(S(=O)(=O)N3CCCCC3)cc3c2N1CCC3 -4.34%
Cc1ccc(N2CC(NC(=O)Cc3ccc(F)cc3)CC2=O)cc1 (stereo not drawn) -8.27%
Cc1cccc(CSc2nc(=O)c3c(n2C)NC(=O)CC3c2cccc(O)c2)c1 (stereo not drawn) -5.08%
Cc1ccc2c(c1)sc1nc(-c3cc4cc(Cl)ccc4oc3=O)cn12 -19.6%
COc1ccccc1NC(=O)Cn1c(=O)n(-c2cccc(Cl)c2)c(=O)c2sc3ccccc3c21 -13.5%
COc1cc2[nH]c(=O)n(Cc3ccc(C(=O)NCc4ccc(C)cc4)cc3)c(=O)c2cc1OC -17%
O=C(Cn1c(=O)n(Cc2ccc(C(=O)NCc3ccc4c(c3)OCO4)cc2)c(=O)c2ccccc21)Nc1cccc(Cl)c1 -13.3%
Cc1cnc(NC(=O)Nc2cc(Br)c(C)cc2OC[C@@H]2CNCCO2)cn1 -24.7%
CC1=C(C(=O)Nc2cccc(C(F)(F)F)c2)C2(CCCCCC2)OC1=O -32.1%
CCc1ccc(C2CC(=O)c3c([nH]c(C(=O)OCc4ccc(C)cc4)c3C)C2)cc1 (stereo not drawn) -19.2%
CCC(C(=O)NCc1ccc2c(c1)CCN2C(=O)c1ccc(F)cc1)c1ccccc1 (stereo not drawn) 10.8%
CCc1nc2ccc(C(=O)NCCc3ccc(OC)cc3OC)cc2nc1CC -45.5%
O=C(NCCc1ccc(Cl)cc1)c1ccc(CS(=O)(=O)Cc2ccc(Cl)cc2)o1 -6.09%
CCOC(=O)c1cc(-c2ccc(C)cc2)n(CCC(=O)Nc2cc(Cl)ccc2C)c1C -4.34%
CC(=O)c1cc(-c2ccccc2)n(CCC(=O)Nc2nc3c(C)cccc3s2)c1C -15%
CCOc1ccc(CCNC(=O)c2cc(Nc3ccc(C)cc3C)nc3ccccc23)cc1OCC 0.176%
CC1CCN(S(=O)(=O)c2ccc3[nH]cc(C(=O)NCc4ccc(F)cc4)c(=O)c3c2)CC1 -9.77%
Cc1c(C(=O)Nc2ccc(N3C[C@@H](C)O[C@@H](C)C3)nc2)cccc1-c1ccc(OC(F)(F)F)cc1 4.22%
COc1ccc(OC)c(S(=O)(=O)NCc2ccc3c(c2)CCN3C(=O)c2cccc(C)c2)c1 -38.2%
Cc1cccc(N2C(=O)N(Cc3ccc(C(C)(C)C)cc3)c3ccccc3S2(=O)=O)c1 -28.9%
CCCOCc1cc(CN2CCN(c3ccccc3OC)CC2)c(O)c2ncccc12 -34.2%
CCOC(=O)c1c(NC(=O)C(C)Sc2cn(CCNC(=O)c3ccc(OC)cc3)c3ccccc23)sc2c1CCC2 (stereo not drawn) -49.7%
Cc1ccc(CSCCNC(=O)CN(c2cccc(C)c2C)S(=O)(=O)c2ccccc2)cc1 -39.5%
O=C(NCc1ccc(Cl)cc1)c1cnc(N2CCOCC2)c2ccccc12 -29.2%
COc1ccccc1NC(=O)C1=C(C)Nc2nc(SCC(=O)c3ccc(C)cc3)nn2C1c1ccc(F)cc1 (stereo not drawn) -0.203%
CC1CCCN(S(=O)(=O)c2cc(C(=O)NCCc3ccccc3)n(C)c2)C1 (stereo not drawn) -15.9%
COCCCOc1ccnc(CS(=O)c2nc3ccccc3[nH]2)c1C (stereo not drawn)
COc1ccc(CNC(=O)c2ccc3c(c2)CCN3S(=O)(=O)c2ccccc2)cc1 -18.4%
Cc1ccccc1CNC(=O)c1ccc(Cn2c(SCc3ccccc3)nc3cccnc32)cc1 5.08%
CC(C)CCn1c(=O)c2sccc2n2c(CCCC(=O)Nc3ccc(C(C)C)cc3)nnc12 -8.82%
COc1ccc(N2CCN(c3nc4ccccc4n4c(C)nnc34)CC2)cc1 -7.67%
CCOC(=O)CC(NS(=O)(=O)c1cc(-c2cc(C)no2)ccc1C)c1ccc(C)cc1 (stereo not drawn) -23.7%
Nc1cc(C(F)(F)F)c(-c2cc(N3CCOCC3)nc(N3CCOCC3)n2)cn1 -37.8%
CCOc1ccc(C(=O)Nc2ccc3nc4c(c(Nc5ccccc5OC)c3c2)CCCC4)cc1 -42.9%
CCOc1ccc2nc(NC(=O)c3nc(SCc4ccc(C)cc4)ncc3Cl)sc2c1 13.2%
CC(C)COc1ccc(C(=O)N2CCC(c3nc4ccccc4s3)CC2)cc1 -14.4%
Cc1ccc2occ(CC(=O)Nc3c(C(=O)Nc4ccc(Cl)cc4)oc4ccccc34)c2c1 9.52%
O=C(CC1N=C2c3ccccc3N=C(SCC(=O)Nc3ccccc3F)N2C1=O)NCc1ccc2c(c1)OCO2 (stereo not drawn) -1.47%
Cc1cccc(C)c1NC(=O)CN(C)S(=O)(=O)c1ccc2[nH]c3c(c2c1)CCCC3 -37.9%
CN(C(=O)CSc1nc2ccccc2[nH]1)c1ccc(F)cc1 9.49%
Cc1ccc(CSc2nncn3c2cc2sccc23)cc1 -4.15%
N#Cc1ccccc1NC(=O)C(=O)NCC(c1cccnc1)N1CCc2ccccc21 (stereo not drawn) -17.7%
O=C(Nc1cc(F)ccc1F)c1cnn2c(C(F)F)cc(-c3ccccc3)nc12 -0.086%
COc1cc(OC)c(NC(=O)C(C)n2nc(-c3ccc(C)cc3)c3c(c2=O)CCCC3)cc1Cl (stereo not drawn) -35.3%
COC(=O)c1ccc(NC(=O)CSc2nc3cc4ccccc4cc3[nH]2)cc1 -8.74%
CC(C)NNC(=O)c1ccncc1 -2.41%
Cc1ccc(NC(=O)C2CCCN(c3ncnc4onc(C)c34)C2)cc1Cl (stereo not drawn) -24.3%
O=C(c1ccccc1)c1ccc2nc(N3CCN(c4ccc(F)cc4)CC3)c3nncn3c2c1 -4.47%
Cc1ccc(S(=O)(=O)c2nnn3c2nc(N2CCN(c4cccc(C)c4C)CC2)c2ccccc23)cc1C -8.6%
COc1ccccc1-c1cc2nc(C)c(CCC(=O)NC3CCCCC3)c(C)n2n1 -37.5%
Cc1ccc(-c2nc(CNC(=O)NC3CCCCC3)c(C)o2)cc1 -11.1%
CC(=O)c1cccc(NC(=O)Nc2cc3c(cc2N2CCCC2)n(C)c(=O)n3C)c1 -15%
CCc1ccc(C(=O)Nc2cccc(-c3nc4cc(C(C)C)ccc4o3)c2)cc1 6.53%
Cc1ccc(Cl)cc1NC(=O)c1ccc2nc(CCc3ccccc3)oc2c1 -12.5%
CCn1cc(C(=O)NCc2ccccc2Cl)c(=O)c2cc(S(=O)(=O)N3CCCCCC3)ccc21 0.159%
CCOc1ccc(Nc2oc(-c3ccc(COc4ccc(C)cc4)o3)nc2C#N)cc1 -13.3%
COc1ccc(NC(=O)c2nnn(CC(=O)Nc3cc(C)cc(C)c3)c2N)c(OC)c1 -8.09%
CCN(C(=O)c1cc(S(=O)(=O)N2CCCC2)cn1C)c1ccc(OC)cc1 -1.19%
COc1ccc(Cn2c(SCc3ccc(C(=O)NCc4cccs4)cc3)nc3ccncc32)cc1 -30%
CSCC[C@H](NC(=O)[C@H](Cc1c[nH]c2ccccc12)NC(=O)CCNC(=O)OC(C)(C)C)C(=O)N[C@@H](CC(=O)O)C(=O)N[C@@H](Cc1ccccc1)C(N)=O -1.66%
O=S(=O)(c1ccccc1)c1nc(-c2ccco2)oc1SCc1ccc(F)cc1 -5.49%
CCCCC(=O)Nc1ccc(C(=O)OCc2cc(=O)n3ccsc3n2)cc1 -34%
Cc1ccc(NC(=O)Cn2c(=O)cc(-c3ccccc3)c3c(C)nn(C)c32)c(Cl)c1 -7.48%
CCOC(=O)c1sc2cccc(F)c2c1S(=O)(=O)Nc1ccccc1F -8.89%
Cc1ccc(C)c(NC(=O)Cn2c(=O)n(CC(=O)NCCc3ccccc3)c(=O)c3ccccc32)c1 -2.84%
O=C(CCCn1c(=O)[nH]c2ccsc2c1=O)N1CCN(c2ccc(Cl)cc2)CC1 -33.3%
O=C(CSc1nnc(-c2ccc(Cl)cc2)c(-c2ccc(Cl)cc2)n1)NC1CCCC1 2.91%
CC(=O)c1cccc(Nc2nc(-c3ccccc3Cl)nc3ccccc23)c1 -44.1%
Cc1ccccc1Cn1c2ccccc2c2cnn(CC(=O)NCCc3ccc(Cl)cc3)c(=O)c21 4.57%
O=C(NC1CC(=O)N(c2ccccc2)C1)c1ccc(S(=O)(=O)N2CCCC2)cc1 (stereo not drawn) -22.7%
Nc1ncc(S(=O)(=O)NCc2ccc(F)cc2)cn1 -8.26%
CC(CCCc1ccccc1)NC(=O)c1nn(-c2ccc(Cl)cc2)nc1CO (stereo not drawn) -34.7%
CC(C)c1cccc(C(C)C)c1NS(=O)(=O)c1cccs1 -31.2%
Cc1ccc2[nH]c3c(=O)n(CC(=O)N4CCCC(C)C4)ncc3c2c1 (stereo not drawn) -9.46%
CCOC(=O)c1c(C)[nH]c(C)c1S(=O)(=O)NCC(=O)N1CCN(c2ccccc2F)CC1 -0.711%
COc1ccc(CNC(=O)C2CCN(S(=O)(=O)c3ccc4c(ccn4C)c3)CC2)cc1 -19.7%
Cc1cc(C)c2c(-n3cccc3)c(C(=O)NCC(C)c3ccccc3)sc2n1 (stereo not drawn) -19.6%
COc1ccc(C(=O)CCC(=O)Nc2cc(C)ccc2C)cc1 -20.8%
CCOc1ccccc1NC(=O)c1cc2c(=O)[nH]c3ccccc3c2s1 -3.02%
Cc1cccc2sc(N(Cc3cccnc3)C(=O)COc3ccccc3)nc12 -23.1%
O=C(NC1CCCCC1)c1ccc2c(c1)N(Cc1cccc(Cl)c1)C(=O)c1ccccc1S2=O (stereo not drawn) -12.9%
CCc1ccc(NC(=O)c2sc3nc(C)cc(C)c3c2NC(=O)c2ccccc2OC)cc1 27.3%
CCN(Cc1ccccc1)C(=O)CCS(=O)(=O)c1ccc2c(c1)CCN2C(C)=O -22.6%
COc1ccc(CN2CCN(S(=O)(=O)c3ccc(NC(C)=O)cc3)CC2)c(OC)c1OC -16.4%
CC(=O)c1cc2c(cc1N/C(=N/S(=O)(=O)c1ccc(F)cc1)c1ccccc1)OCO2 -9.9%
O=C(Cn1ncc2c3ccccc3n(Cc3cccc(Cl)c3)c2c1=O)N1CCCCCC1 -30.2%
O=C(NCc1ccco1)c1ccc2c(c1)N(Cc1cccc(Cl)c1)C(=O)c1ccccc1S2=O (stereo not drawn) -37.9%
CCOc1ccc(CCNC(=O)Cn2c(C)c3cnn(-c4ccccc4)c(=O)c3c2C)cc1 -11.2%
COc1cc(OC)c(NC(=O)CSc2cc(=O)n(C)c3ccc(Cl)cc23)cc1Cl -0.0423%
